From the CheMixHub viscosity set
Values joined by “and” are separate entries in the source; they are usually repeats but may differ in a detail not shown here. Equal values may be shown once. Further values from the same series stand in other lists.

Assay: xn = mol fraction of the nth substance listed

CO + O
Conditions | viscosity
308.15 K, 101 kPa, x1 = 0.69 | 0.872 mPa·s
308.15 K, 101 kPa, x1 = 0.7522 | 0.7684 mPa·s
308.15 K, 101 kPa, x1 = 0.83 | 0.673 mPa·s
308.15 K, 101.3 kPa, x1 = 0.4576 | 1.098 mPa·s
308.15 K, 101.3 kPa, x1 = 0.5675 | 0.974 mPa·s
308.15 K, 101.3 kPa, x1 = 0.6922 | 0.829 mPa·s
308.15 K, 101.3 kPa, x1 = 0.835 | 0.667 mPa·s
308.15 K, 101.3 kPa, x1 = 0.9144 | 0.566 mPa·s
313.15 K, 101 kPa, x1 = 0.024 | 0.7156 mPa·s
313.15 K, 101 kPa, x1 = 0.059 | 0.793 mPa·s
313.15 K, 101 kPa, x1 = 0.0597 | 0.7907 mPa·s
313.15 K, 101 kPa, x1 = 0.0909 | 0.8594 mPa·s
313.15 K, 101 kPa, x1 = 0.0927 | 0.8699 mPa·s
313.15 K, 101 kPa, x1 = 0.12 | 0.902 mPa·s
313.15 K, 101 kPa, x1 = 0.128 | 0.9553 mPa·s
313.15 K, 101 kPa, x1 = 0.1662 | 0.9879 mPa·s
313.15 K, 101 kPa, x1 = 0.19 | 0.989 mPa·s
313.15 K, 101 kPa, x1 = 0.1986 | 1.02 mPa·s
313.15 K, 101 kPa, x1 = 0.2086 | 1.06 mPa·s
313.15 K, 101 kPa, x1 = 0.2491 | 1.05 mPa·s
313.15 K, 101 kPa, x1 = 0.27 | 1.003 mPa·s
313.15 K, 101 kPa, x1 = 0.2841 | 1.052 mPa·s
313.15 K, 101 kPa, x1 = 0.3041 | 1.079 mPa·s
313.15 K, 101 kPa, x1 = 0.3084 | 1.049 mPa·s
313.15 K, 101 kPa, x1 = 0.36 | 1.045 mPa·s
313.15 K, 101 kPa, x1 = 0.3673 | 1.035 mPa·s
313.15 K, 101 kPa, x1 = 0.4203 | 0.9738 mPa·s
313.15 K, 101 kPa, x1 = 0.46 | 0.997 mPa·s
313.15 K, 101 kPa, x1 = 0.4752 | 0.9589 mPa·s
313.15 K, 101 kPa, x1 = 0.5235 | 0.9177 mPa·s
313.15 K, 101 kPa, x1 = 0.5657 | 0.8887 mPa·s
313.15 K, 101 kPa, x1 = 0.57 | 0.946 mPa·s
313.15 K, 101 kPa, x1 = 0.6735 | 0.7635 mPa·s
313.15 K, 101 kPa, x1 = 0.69 | 0.784 mPa·s
313.15 K, 101 kPa, x1 = 0.7522 | 0.702 mPa·s
313.15 K, 101 kPa, x1 = 0.8172 | 0.6182 mPa·s
313.15 K, 101 kPa, x1 = 0.83 | 0.6344 mPa·s and 0.62 mPa·s
313.15 K, 101 kPa, x1 = 0.92 | 0.5221 mPa·s
313.15 K, 101.3 kPa, x1 = 0.0588 | 0.8 mPa·s
313.15 K, 101.3 kPa, x1 = 0.1233 | 0.941 mPa·s
313.15 K, 101.3 kPa, x1 = 0.1943 | 1.034 mPa·s
313.15 K, 101.3 kPa, x1 = 0.2727 | 1.074 mPa·s
313.15 K, 101.3 kPa, x1 = 0.3599 | 1.046 mPa·s
313.15 K, 101.3 kPa, x1 = 0.4576 | 0.981 mPa·s
313.15 K, 101.3 kPa, x1 = 0.5675 | 0.876 mPa·s
313.15 K, 101.3 kPa, x1 = 0.6922 | 0.752 mPa·s
313.15 K, 101.3 kPa, x1 = 0.835 | 0.612 mPa·s
313.15 K, 101.3 kPa, x1 = 0.9144 | 0.532 mPa·s
313.15 K, 101.33 kPa, x1 = 0.0588 | 0.823 mPa·s
313.15 K, 101.33 kPa, x1 = 0.1119 | 0.858 mPa·s
313.15 K, 101.33 kPa, x1 = 0.123 | 0.96 mPa·s
313.15 K, 101.33 kPa, x1 = 0.194 | 1.064 mPa·s
313.15 K, 101.33 kPa, x1 = 0.273 | 1.091 mPa·s
313.15 K, 101.33 kPa, x1 = 0.2752 | 0.982 mPa·s
313.15 K, 101.33 kPa, x1 = 0.36 | 1.073 mPa·s
313.15 K, 101.33 kPa, x1 = 0.458 | 1.004 mPa·s
313.15 K, 101.33 kPa, x1 = 0.4607 | 0.965 mPa·s
313.15 K, 101.33 kPa, x1 = 0.692 | 0.769 mPa·s
313.15 K, 101.33 kPa, x1 = 0.6981 | 0.782 mPa·s
313.15 K, 101.33 kPa, x1 = 0.8322 | 0.629 mPa·s
313.21 K, 101.33 kPa, x1 = 0.0583 | 0.8215 mPa·s
313.21 K, 101.33 kPa, x1 = 0.1229 | 0.9519 mPa·s
313.21 K, 101.33 kPa, x1 = 0.1889 | 1.042 mPa·s
313.21 K, 101.33 kPa, x1 = 0.2719 | 1.085 mPa·s
313.21 K, 101.33 kPa, x1 = 0.3592 | 1.066 mPa·s
313.21 K, 101.33 kPa, x1 = 0.4571 | 0.9935 mPa·s
313.21 K, 101.33 kPa, x1 = 0.5663 | 0.893 mPa·s
313.21 K, 101.33 kPa, x1 = 0.6913 | 0.7637 mPa·s
313.21 K, 101.33 kPa, x1 = 0.8341 | 0.6146 mPa·s
318.15 K, 100 kPa, x1 = 0.047 | 0.708 mPa·s
318.15 K, 100 kPa, x1 = 0.159 | 0.902 mPa·s
318.15 K, 100 kPa, x1 = 0.306 | 1.026 mPa·s
318.15 K, 101 kPa, x1 = 0.0597 | 0.7095 mPa·s
318.15 K, 101 kPa, x1 = 0.128 | 0.8543 mPa·s
318.15 K, 101 kPa, x1 = 0.2086 | 0.9406 mPa·s
318.15 K, 101 kPa, x1 = 0.3041 | 0.9562 mPa·s
318.15 K, 101 kPa, x1 = 0.4203 | 0.8652 mPa·s
318.15 K, 101 kPa, x1 = 0.5657 | 0.8037 mPa·s
318.15 K, 101 kPa, x1 = 0.7522 | 0.6437 mPa·s
322.9 K, 101 kPa, x1 = 0.024 | 0.5963 mPa·s
322.9 K, 101 kPa, x1 = 0.0927 | 0.7026 mPa·s
322.9 K, 101 kPa, x1 = 0.1662 | 0.7891 mPa·s
322.9 K, 101 kPa, x1 = 0.1986 | 0.8121 mPa·s
322.9 K, 101 kPa, x1 = 0.2491 | 0.8349 mPa·s
322.9 K, 101 kPa, x1 = 0.2841 | 0.8383 mPa·s
322.9 K, 101 kPa, x1 = 0.3084 | 0.8384 mPa·s
322.9 K, 101 kPa, x1 = 0.4752 | 0.7745 mPa·s
322.9 K, 101 kPa, x1 = 0.5235 | 0.7463 mPa·s
322.9 K, 101 kPa, x1 = 0.6735 | 0.6347 mPa·s
322.9 K, 101 kPa, x1 = 0.8172 | 0.5267 mPa·s
322.9 K, 101 kPa, x1 = 0.92 | 0.4535 mPa·s
323.05 K, 101.33 kPa, x1 = 0.0583 | 0.6624 mPa·s
323.05 K, 101.33 kPa, x1 = 0.1229 | 0.763 mPa·s
323.05 K, 101.33 kPa, x1 = 0.2719 | 0.8647 mPa·s
323.05 K, 101.33 kPa, x1 = 0.3592 | 0.8553 mPa·s
323.05 K, 101.33 kPa, x1 = 0.5663 | 0.737 mPa·s
323.05 K, 101.33 kPa, x1 = 0.6913 | 0.6387 mPa·s
323.05 K, 101.33 kPa, x1 = 0.8341 | 0.527 mPa·s
323.1 K, 101.33 kPa, x1 = 0.4571 | 0.8034 mPa·s
323.15 K, 100 kPa, x1 = 0.15 | 0.7811 mPa·s
323.15 K, 100 kPa, x1 = 0.25 | 0.8375 mPa·s
323.15 K, 100 kPa, x1 = 0.3 | 0.8423 mPa·s
323.15 K, 100 kPa, x1 = 0.35 | 0.8335 mPa·s
323.15 K, 100 kPa, x1 = 0.5 | 0.7551 mPa·s
323.15 K, 100 kPa, x1 = 0.75 | 0.576 mPa·s
323.15 K, 101 kPa, x1 = 0.0597 | 0.6414 mPa·s
323.15 K, 101 kPa, x1 = 0.128 | 0.7673 mPa·s
323.15 K, 101 kPa, x1 = 0.2086 | 0.8412 mPa·s
323.15 K, 101 kPa, x1 = 0.3041 | 0.8546 mPa·s
323.15 K, 101 kPa, x1 = 0.4203 | 0.7757 mPa·s
323.15 K, 101 kPa, x1 = 0.5657 | 0.7305 mPa·s
323.15 K, 101 kPa, x1 = 0.7522 | 0.5916 mPa·s
323.15 K, 101.3 kPa, x1 = 0.0588 | 0.656 mPa·s
323.15 K, 101.3 kPa, x1 = 0.1233 | 0.759 mPa·s
323.15 K, 101.3 kPa, x1 = 0.1943 | 0.823 mPa·s
323.15 K, 101.3 kPa, x1 = 0.2727 | 0.854 mPa·s
323.15 K, 101.3 kPa, x1 = 0.3599 | 0.841 mPa·s
323.15 K, 101.3 kPa, x1 = 0.4576 | 0.795 mPa·s
323.15 K, 101.3 kPa, x1 = 0.5675 | 0.722 mPa·s
323.15 K, 101.3 kPa, x1 = 0.6922 | 0.63 mPa·s
323.15 K, 101.3 kPa, x1 = 0.835 | 0.522 mPa·s
323.15 K, 101.33 kPa, x1 = 0.0588 | 0.688 mPa·s
323.15 K, 101.33 kPa, x1 = 0.1119 | 0.744 mPa·s
323.15 K, 101.33 kPa, x1 = 0.123 | 0.788 mPa·s
323.15 K, 101.33 kPa, x1 = 0.194 | 0.867 mPa·s
323.15 K, 101.33 kPa, x1 = 0.273 | 0.884 mPa·s
323.15 K, 101.33 kPa, x1 = 0.2752 | 0.788 mPa·s
323.15 K, 101.33 kPa, x1 = 0.36 | 0.875 mPa·s
323.15 K, 101.33 kPa, x1 = 0.458 | 0.817 mPa·s
323.15 K, 101.33 kPa, x1 = 0.4607 | 0.77 mPa·s
323.15 K, 101.33 kPa, x1 = 0.692 | 0.65 mPa·s
323.15 K, 101.33 kPa, x1 = 0.6981 | 0.627 mPa·s
323.15 K, 101.33 kPa, x1 = 0.8322 | 0.539 mPa·s
